Laboratory results reported in the supplement of paper PMC3334620.
The full ranking holds about 33,000 sequences; the median of “E-score (-0.5 to 0.5)” is about -0.032, and the highest 2% start at about 0.36. The list shows a part of the results.

target: T1, Sko1 (UniProt Q02100); experiment: PBM E-score (8-mer binding enrichment) (E-score (-0.5 to 0.5)); higher = stronger / more preferred TF binding; most listed sequences are background and not binding sites; conditions: protein concentration: 200 nM; construct: GST-full length
T1 sequence: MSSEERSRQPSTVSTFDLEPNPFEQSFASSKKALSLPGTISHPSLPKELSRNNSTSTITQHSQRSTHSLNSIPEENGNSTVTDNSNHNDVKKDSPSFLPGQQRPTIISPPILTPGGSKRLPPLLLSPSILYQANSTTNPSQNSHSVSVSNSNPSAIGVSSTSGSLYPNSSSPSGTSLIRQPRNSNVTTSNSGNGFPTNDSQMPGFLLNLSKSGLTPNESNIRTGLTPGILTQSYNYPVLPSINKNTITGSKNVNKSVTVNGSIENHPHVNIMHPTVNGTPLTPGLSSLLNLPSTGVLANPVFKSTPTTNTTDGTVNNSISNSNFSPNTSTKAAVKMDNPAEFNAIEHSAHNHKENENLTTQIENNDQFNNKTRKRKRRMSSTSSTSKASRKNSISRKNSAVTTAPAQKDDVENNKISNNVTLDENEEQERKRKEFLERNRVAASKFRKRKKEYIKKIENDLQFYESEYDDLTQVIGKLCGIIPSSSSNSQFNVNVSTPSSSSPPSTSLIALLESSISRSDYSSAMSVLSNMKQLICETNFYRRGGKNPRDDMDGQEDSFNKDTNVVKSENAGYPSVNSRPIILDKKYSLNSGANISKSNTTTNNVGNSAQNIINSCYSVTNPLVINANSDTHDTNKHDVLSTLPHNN
In short: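 Using PURExpress in vitro transcription/translation, GST-tagged yeast transcription factors were made in full-length or DNA-binding-domain form. These were applied at about 100-200 nM to double-stranded universal all-10-mer Agilent arrays, and bound protein was detected with fluorescent anti-GST. Scans were normalised with masliner before the Universal PBM Analysis Suite assigned E-scores to ungapped eight-base words pooled with their reverse complements.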

| Sequence | PBM E-score |
| --- | --- |
| ATGGACAG | -0.148 |
| GTCGAGAA | 0.107 |
| AGGTGCAA | -0.0163 |
| CCCCAAAG | -0.256 |
| GGAAATCA | 0.125 |
| CAACGAAG | -0.0381 |
| ATATGTTG | 0.0568 |
| AAGGCCAG | -0.15 |
| AGCGTACT | -0.0878 |
| CTACCAAG | -0.151 |
| TACTTGAA | 0.222 |
| GCAGTACA | -0.233 |
| AGGGCGGG | -0.163 |
| AGACCAAT | 0.0443 |
| GGATTACA | -0.0365 |
| CGAGAATA | 0.0959 |
| ACACACAC | 0.131 |
| AGTGATAT | 0.121 |
| CATCGGCA | -0.0364 |
| CATCTTGG | 0.0174 |
| CGAAGTAC | 0.0872 |
| GAAGGGGC | -0.24 |
| TGAGAACA | 0.0465 |
| ATCCGCTC | -0.316 |
| AAACGCGA | 0.118 |

| Sequence | PBM E-score |
| --- | --- |
| GTCGCGTA | 0.363 |
| ATCGCCAT | 0.0218 |
| AAGCGAGT | 0.0206 |
| ACTTATAG | 0.0178 |
| ATAAAGAC | 0.178 |
| ATTAAAAG | 0.13 |
| AATAGAGG | -0.129 |
| ATCTTACG | 0.322 |
| AAGTTTGG | 0.2 |
| CCGCCGAG | -0.312 |
| AACTGCGG | -0.133 |
| CGACAACG | 0.219 |
| ATTAACGA | 0.196 |
| AACATGTC | 0.0288 |
| GACAGACA | 0.0697 |
| ATTATCTG | 0.128 |
| CTGGAGGC | -0.284 |
| CTTTGCCA | -0.0823 |
| AGTTTATC | 0.00583 |
| ATTGCGGC | -0.158 |
| ATTCGGGA | -0.332 |
| CCATCGTA | 0.282 |
| CCCGGGAA | -0.303 |
| AATTCTTA | -0.0395 |
| ACCGCAAA | 0.12 |

| Sequence | PBM E-score |
| --- | --- |
| CCGTAGCA | -0.064 |
| CATTGACG | 0.412 |
| GAACGAAA | 0.00831 |
| AGGTTAAC | 0.108 |
| GGTACTTA | -0.11 |
| ATAGAGTC | -0.0273 |
| ACCTTTGC | 0.0497 |
| CCAGTGGG | -0.107 |
| CCGTCCGA | -0.301 |
| ACACGTCC | 0.214 |
| CCGGGAAG | -0.334 |
| AAGATCGC | 0.0901 |
| AGAGTATG | -0.111 |
| CCAATTTC | -0.101 |
| CGATACAG | -0.166 |
| AAATCGCT | -0.135 |
| CAGTAGCC | -0.275 |
| CCCCGCTC | -0.336 |
| ACGGTCCA | -0.199 |
| GCTATATA | 0.181 |
| CGATCAAC | -0.0422 |
| ACATCACG | 0.314 |
| ACCGCCCC | -0.182 |
| TACACTAA | -0.0348 |
| ATGAGATG | 0.0776 |

| Sequence | PBM E-score |
| --- | --- |
| ATGGCCTG | -0.291 |
| AAAGAGCC | -0.0764 |
| CTTTGCTC | -0.0818 |
| AGCTTAAG | 0.0013 |
| TAGCTGAA | 0.0416 |
| GTCTGCAC | -0.118 |
| AGCAAGAA | 0.0698 |
| AGTTCCCG | -0.193 |
| CGCTTCCG | -0.0931 |
| AACTAGGC | -0.0926 |
| CAGTCCTA | -0.171 |
| ACCGGACT | -0.255 |
| CAGCGATG | -0.184 |
| GAGCCAAC | 0.0203 |
| GAGTTGAC | -0.00674 |
| CATCAGAA | 0.24 |
| AGGGCTGC | -0.224 |
| GAAACCCC | -0.221 |
| GGGTTTGA | 0.0269 |
| GTGTGTCA | 0.23 |
| ATTTCGGA | 0.136 |
| GGACACGA | -0.207 |
| ATAACAAT | 0.037 |
| ACCCCCAC | -0.413 |
| TAAGGGGA | -0.104 |

| Sequence | PBM E-score |
| --- | --- |
| ATCATCGG | 0.00617 |
| AGAGTCAT | -0.0362 |
| AGCGTCAA | 0.166 |
| GCGCGTTA | 0.0431 |
| ACTTCGAA | 0.142 |
| ATTGACGC | 0.319 |
| CAGTATCC | -0.163 |
| GAACCGAC | -0.0388 |
| CGGATAAC | -0.0495 |
| GGGCGCAC | -0.244 |
| CTCCCTAC | 0.131 |
| CGTGGTCA | 0.0325 |
| ACTCTGGC | -0.218 |
| AATATTAC | 0.257 |
| ATAAAATG | 0.185 |
| AGCGGGAT | -0.0978 |
| ATATCGCA | 0.0492 |
| AAGGACCA | -0.286 |
| GATATGGC | -0.23 |
| ATTTCATG | -0.0667 |
| ATTGAGTA | 0.286 |
| CCGGGAGG | -0.268 |
| CAGAAGGC | -0.165 |
| CGAAATGA | 0.167 |
| CTGTTGGA | -0.137 |

| Sequence | PBM E-score |
| --- | --- |
| AGACAGAA | 0.0336 |
| GGAGACTA | -0.125 |
| ACAGATGG | -0.189 |
| ACACGTGT | 0.407 |
| AGGATGAC | 0.166 |
| ATGGTCGA | -0.113 |
| GAACGTCA | 0.456 |
| GGAAGAGA | -0.11 |
| CCGCCAGC | -0.283 |
| CGGTATTA | 0.0413 |
| ACCTCGCC | -0.347 |
| AAAACTGG | -0.0581 |
| TATACATA | 0.319 |
| CGAAGCAC | -0.0588 |
| ACAGCACT | -0.0725 |
| CGGGACAC | -0.225 |
| CAATGTTA | 0.00579 |
| GCTTTCTA | 0.124 |
| CGTCGTTA | 0.153 |
| AACTAATT | 0.182 |
| CACACAAG | 0.148 |
| GGCGACCA | -0.283 |
| GGCTGTTA | 0.0822 |
| GTAGAACA | -0.267 |
| AATAGCCT | -0.093 |

| Sequence | PBM E-score |
| --- | --- |
| ACAGCATG | 0.0123 |
| GCTTTAGA | -0.123 |
| AGGATATA | 0.16 |
| CCAGTGTA | -0.162 |
| CACACATC | -0.00525 |
| CAAGCAAA | -0.0707 |
| CCATCTGA | 0.0122 |
| TAAGCTTA | 0.199 |
| TTCAAAAA | 0.039 |
| TGGAGACA | -0.0854 |
| GTCGGACA | -0.0488 |
| TCAGTTAA | 0.101 |
| ACTGCATG | -0.00289 |
| AACGCCGC | -0.0243 |
| GTAGTAAC | -0.0447 |
| CCCTATAG | -0.169 |
| GATCCAAC | -0.168 |
| CGTTTACC | 0.107 |
| CTGAGCAG | -0.00663 |
| CTTACAAC | 0.101 |
| CGGGTGAC | 0.141 |
| GCGACGCC | -0.0621 |
| CAGTAGAA | 0.0237 |
| AACTTCCT | -0.0621 |
| CTATTCTA | 0.0865 |

| Sequence | PBM E-score |
| --- | --- |
| GCCGTCAC | 0.166 |
| AGAATATG | 0.14 |
| CACAAGGA | -0.121 |
| ACTGGGGG | -0.346 |
| AATTGCGG | -0.172 |
| ATAAAGCC | -0.108 |
| GTTCGAGA | 0.0475 |
| CGATAGGC | -0.218 |
| CTTCATCA | 0.116 |
| CGTGAAAA | 0.151 |
| CCCGGAGA | -0.155 |
| GCTGACGA | 0.352 |
| GCGTGCGA | -0.0187 |
| GGAGGAAA | -0.186 |
| GTGCTGCA | 0.00869 |
| ATCAGGGC | -0.139 |
| GATAACAC | 0.151 |
| CAAGAATG | -0.0283 |
| ACATACAC | 0.165 |
| AGGTATCC | -0.058 |
| AGGGACTA | -0.232 |
| ATGGTGAC | 0.0144 |
| AATTCCCG | 0.0364 |
| CAGAACTC | -0.0896 |
| AATGATGG | 0.189 |

| Sequence | PBM E-score |
| --- | --- |
| AGACAAAA | 0.0462 |
| ATGCTGGA | -0.0717 |
| CACCGCAA | 0.119 |
| GCTCCTCC | -0.138 |
| GCACTCGC | -0.0508 |
| GCAGCGGA | -0.11 |
| AAGTGACA | 0.311 |
| AATCTCAA | 0.0641 |
| CCACCTCA | -0.15 |
| ACTTAGCA | -0.0486 |
| GGTGTTAC | -0.0156 |
| AACACGAC | 0.133 |
| GAGCTTCC | -0.151 |
| CATCCATA | -0.0657 |
| CCTCCGCA | -0.374 |
| GGGTGTGA | -0.134 |
| ACAATCGG | 0.033 |
| GCATTGAC | 0.234 |
| CACAGGAA | -0.0894 |
